From PubChem BioAssay AID1671194 (National Center for Advancing Translational Sciences (NCATS), 2021)
The whole screen tested about 140,000 compounds, of which about 240 (0.17%) were called active. This list was built around the results that the source calls inconclusive (neither active nor inactive); the mix of calls is not that of the screen. Calls follow the shape of the dose curve; as a rule, active = well fitted inhibition curve with a large enough effect; inconclusive = small, poorly fitted or top-dose-only effect; inactive = no such curve, though single readings can be large or run the other way. Where the call is inconclusive, the potency comes from a doubtful curve fit.

Assay: Primary qHTS assay for inhibitors of alpha-synuclein gene (SNCA) expression; also: nearly all actives have a fitted effect of over 45% in size
Conditions: HEK-293 SNCA-luciferase knock-in, luminescence, 24 h; series mostly up to 57.2 µM
Potency is read from the fitted curve at half-maximal effect; tags tell the direction and shape of the fitted curve.

Compound	Potency
Cc1nc(N=Nc2ccc(S(=O)(=O)O)cc2S(=O)(=O)O)c(COP(=O)(O)O)c(C=O)c1O	inactive
CCNC(=O)N1CCC[C@@H](O)[C@H](NC(=O)c2ccc(OCCN3CCOCC3)cc2)C1	inconclusive: 56.2 µM [inhibitor, single point]
COc1ccc(-c2cc(N3CCCN(C(=O)c4cccc(Cl)c4)CC3)n[nH]2)cc1	inconclusive: 0.708 µM [inhibitor, single point]
N#Cc1ccc(C(=O)N2CCCN(c3cc(-c4ccc(Cl)cc4)[nH]n3)CC2)cc1	inconclusive: 20 µM [inhibitor, single point]
Cc1ccc(S(=O)(=O)N(CC(=O)Nc2c(C)cccc2C)c2cccc(Cl)c2)cc1	inconclusive: 39.8 µM [inhibitor, single point]
O=C(Cn1cc(S(=O)(=O)Cc2ccccc2Cl)c2ccccc21)Nc1cccc(C(F)(F)F)c1	inconclusive: 5.01 µM [inhibitor, single point]
COC(=O)c1cc(C)nc2c1c(=O)nc(SCc1c(C)cc(C)cc1C)n2C1CC1	inconclusive: 39.8 µM [inhibitor, single point]
COc1ccc(CN2CC(CNc3ccccc3)C3(C2)CN(c2ccccc2)C3)cc1O (centres undefined)	inconclusive: 7.94 µM [inhibitor, partial curve, poor fit]
COc1ccc(-c2cc(N3CCC(NC(=O)c4cc(C)cc(C)c4)C3)n[nH]2)cc1 (centres undefined)	inactive
O=C1Nc2ccccc2CC12CCN(Cc1ccc(OC(F)(F)F)cc1)C2 (centres undefined)	inconclusive: 17.8 µM [inhibitor, single point]
CCCCC[C@H](CC(=O)NO)C(=O)N[C@H](C(=O)N1CCC[C@H]1CO)C(C)C	inconclusive: 3.55 µM [inhibitor, full curve]
CC(=O)N1CCN(c2cc(-c3noc([C@@H]4CCCN4Cc4ccc(C(F)(F)F)cc4)n3)ccn2)CC1	inconclusive: 39.8 µM [inhibitor, single point]
CC(NC(=O)C1CC(c2ccccc2)CN(C(=O)c2ccc(F)cc2)C1)c1ccccc1 (centres undefined)	inconclusive: 7.08 µM [inhibitor, single point]
C[C@H]1c2cccc(O)c2C(O)=C2C(=O)[C@]3(O)C(O)=C(C(N)=O)C(=O)[C@@H](N(C)C)[C@@H]3[C@@H](O)[C@@H]21	inconclusive: 39.8 µM [inhibitor, single point]
O=C(NCCCc1ccccc1)C1CCN(c2cc(C(F)(F)F)ncn2)CC1	inconclusive: 3.16 µM [inhibitor, partial curve, poor fit]
Cc1ccc(C(=O)CC2(O)C(=O)N(Cc3ccccc3)c3ccc(Br)cc32)cc1 (centres undefined)	inconclusive: 22.4 µM [inhibitor, partial curve, poor fit]
O=C(NCCc1cccc(F)c1)C1CC(=O)N(c2n[nH]c3ccccc23)C1 (centres undefined)	inactive
CC(Oc1ccccc1)C(=O)N1CCC(n2cc(-c3nc(-c4ccccc4)no3)nn2)CC1 (centres undefined)	inconclusive: 39.8 µM [inhibitor, single point]
COc1cccc(CSc2nc(-c3ccccc3OC)nc3c2Cc2c(CO)cnc(C)c2O3)c1	inconclusive: 39.8 µM [inhibitor, single point]
CSc1nn(Cc2ccc(F)cc2)c(N)c1S(=O)(=O)c1ccc(Cl)cc1	inconclusive: 39.8 µM [inhibitor, single point]
O=C(c1cnccn1)N1CCC(c2noc(C3CC3)n2)C1 (centres undefined)	inconclusive: 15.8 µM [inhibitor, single point]
Cc1ccc(-c2n[nH]c3c2C(c2cccs2)N(c2ccc(Cl)cc2)C3=O)cc1 (centres undefined)	inconclusive: 10 µM [inhibitor, partial curve, poor fit]

Compound	Potency
COCc1nc(C2CC(N)C2)cc(N(C)Cc2noc3c2CCCC3)n1 (centres undefined)	inactive
CC(C)c1ccc(S(=O)(=O)c2cnc(SCC(=O)Nc3ccc(F)cc3F)nc2N)cc1	inconclusive: 1 µM [inhibitor, full curve]
COCC(=O)N1CCCC(c2nn(-c3ccc(OC)cc3)c(=O)[nH]2)C1 (centres undefined)	inconclusive: 35.5 µM [inhibitor, single point]
COCCNC(=O)C(NC(=O)c1ccc(OC)cc1)C1CCN(C(=O)c2ccco2)CC1 (centres undefined)	inactive
O=C(COc1ccc(F)cc1)Nc1cnc(-c2ccccc2)nc1	inactive
COCCNC(=O)C1CCCN1C(=O)c1cccc(-c2ccccn2)c1 (centres undefined)	inconclusive: 11.2 µM [inhibitor, partial curve]
COc1ccc(Cl)cc1NC(=O)CCCS(=O)(=O)c1nc(-c2ccc(OC)c(OC)c2)cc(C(F)(F)F)n1	inconclusive: 39.8 µM [inhibitor, single point]
CCn1cc2nc(SCc3cccc(F)c3)n(CCc3ccccc3)c(=O)c2n1	inconclusive: 22.4 µM [inhibitor, partial curve, poor fit]
Cc1cc(C)n2c(Nc3cccc(C(F)(F)F)c3)c(-c3ccsc3)nc2n1	inconclusive: 11.2 µM [inhibitor, partial curve, poor fit]
Cn1nccc1CN1CCC2(COc3ccccc3C(=O)N2)C1 (centres undefined)	inactive
COc1ccc(-c2cc(-c3cn[nH]c3)c3cncn3c2)cn1	inconclusive: 89.1 µM [inhibitor, single point]
O=S(=O)(c1ccccc1)N1CCC(CCOc2ccccc2)C1 (centres undefined)	inactive
O=C1CCCCC(C(=O)O)N1 (centres undefined)	inconclusive: 28.2 µM [inhibitor, single point]
O=C1NC2(CN(Cc3cncs3)C2)Oc2ccccc21	inconclusive: 12.6 µM [inhibitor, full curve, poor fit]
Cc1cnc(C(=O)N2CCC3(CC2)c2[nH]c4ccccc4c2CCN3C)cn1	inconclusive: 39.8 µM [inhibitor, single point]
COC(=O)C1=CN(CC(=O)Nc2cccc(Br)c2)S(=O)(=O)N=C1C	inconclusive: 39.8 µM [inhibitor, single point]
O=C(NCc1ccccc1)[C@@H]1CCCN1c1nccc(Nc2ccccc2Cl)n1	inactive
Cc1ccc2c(c1)nc1n2[C@@H](CNC2CCN(C)CC2)COC1	inconclusive: 15.8 µM [inhibitor, partial curve, poor fit]
Cc1ccc(Nc2nc(C)c(NC(=O)c3ccc(C)cc3)c(Nc3ccc(C)cc3)n2)cc1	inconclusive: 25.1 µM [inhibitor, single point]
COc1ccc(CCNC(=O)Cn2nc(C)c3c(C)n(-c4ccc(C)cc4)nc3c2=O)c(OC)c1	inconclusive: 3.55 µM [inhibitor, partial curve, poor fit]
N#CC1CCN(C(=O)c2nc(-c3cc(Cl)cc(Cl)c3)c3ccccn23)CC1	inactive
COc1cccc(CNC2(Cc3cc(-c4ccc(F)cc4)on3)COC2)c1	inconclusive: 31.6 µM [inhibitor, single point]

Compound	Potency
Brc1ccc(CN2CCC(c3nc4ccncc4[nH]3)C2)cc1 (centres undefined)	inactive
CCOc1ccc(-c2ccnc(N3CCC(NC(C)=O)CC3)n2)cc1C(=O)O	inactive
CCOC(=O)c1c(C)oc2nc(C)nc(NCc3ccc(OC)cc3)c12	inconclusive: 7.08 µM [inhibitor, single point]
CC(=O)Nc1ccc(NC(=O)CCc2c(C)nc3c(c(C)nn3-c3ccccc3)c2C)cc1	inconclusive: 15.8 µM [inhibitor, partial curve, poor fit]
CCOc1ccc(NC(=O)Cn2cc(C(=O)c3ccccc3)c(=O)c3cc4c(cc32)OCCO4)cc1	inactive
O=C(c1ccc2c(c1)OCO2)N1CCC2(CC1)N(Cc1ccccc1)C(=O)CS2(=O)=O	inactive
O=C(NC1CCCc2c1[nH]c1ccccc21)c1ccccc1 (centres undefined)	inactive
CCCCNC(=O)CC1N=C2c3ccccc3N=C(SCC(=O)NCc3ccccc3Cl)N2C1=O (centres undefined)	inactive
Cc1nnc(NC(=O)NC2CCN(Cc3ccccc3)CC2)s1	inconclusive: 10 µM [inhibitor, partial curve]
Cc1cc(=O)oc2cc(OCC(=O)Nc3c(C(C)C)cccc3C(C)C)ccc12	inconclusive: 15.8 µM [inhibitor, partial curve, poor fit]
COCCNC(=O)c1cc(-c2ccc(OC)cc2)nc2c1c(C)nn2-c1ccccc1	inactive
COc1ccc(C=CC(=O)Nc2ccccc2C(=O)O)cc1OC	active: 1.52 µM
CN(C)[C@@H]1C[C@@H](CO)N(Cc2cc(=O)n3c4c(cccc24)CCC3)C1	inactive
CCOC(=O)C1CCN(C(=O)C2CCc3nnc(-c4cccc(C(F)(F)F)c4)n32)CC1 (centres undefined)	inconclusive: 12.6 µM [inhibitor, partial curve, poor fit]
O=C(NCc1cccs1)c1cc(-c2cccc(C(F)(F)F)c2)c2nncn2n1	inconclusive: 3.55 µM [inhibitor, full curve]
Cc1ccc(C2NC(=O)N(CC(=O)NC3CCCCC3)C3=C2C(=O)OC3)cc1 (centres undefined)	inconclusive: 14.1 µM [inhibitor, partial curve, poor fit]
c1coc(-c2ccnc3nc(-c4cccs4)nn23)c1	inactive
O=C(Nc1cccc(-c2cccc(Cl)c2)c1)C1CCN(Cc2cccc(O)c2)CC1	inconclusive: 22.4 µM [inhibitor, partial curve]
CCn1nccc1C(=O)N1C[C@@H]2CCCN3CCC[C@@H]([C@H]23)[C@H]1CCCC(=O)Nc1ccccc1	inconclusive: 8.91 µM [inhibitor, single point]
Cc1cccc(CNc2nc(-c3cccnc3)nc3ccccc23)c1	inconclusive: 22.4 µM [inhibitor, partial curve, poor fit]
